“And” between values parts separate entries of the source, which are not always exact repeats. Equal entries are not always repeated. Hit rate of the full screen: of about 420,000 compounds, about 64,000 (15%) were called active. This list was built around the results that the source calls inconclusive (neither active nor inactive); the mix of calls is not that of the screen. Calls follow the shape of the dose curve; as a rule, active = well fitted inhibition curve with a large enough effect; inconclusive = small, poorly fitted or top-dose-only effect; inactive = flat fitted curve, though single readings scatter. Where the call is inconclusive, the potency comes from a doubtful curve fit.
assay: qHTS for Inhibitors of human tyrosyl-DNA phosphodiesterase 1 (TDP1): qHTS in cells in absence of CPT; settings: DT40 Tdp1-/- hTDP1 cells, no CPT, ATP luminescence, 48 h; activity change, negative = growth inhibition: at 46.2 µM (top of the series); also: nearly all actives have a fitted effect of over 55% in size
Outline: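 Chicken DT40 Tdp1-/- cells complemented with human TDP1, screened without camptothecin (DMSO vehicle only), 400 cells/well. Compounds pin-transferred, cells incubated at 37 °C for at least 48 hr. Growth read as ATP-dependent luminescence (CellTiter-Glo, 30 min at RT).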
% is scaled to controls: 0 for no effect and ±100 for the full control effect; potency is read from the fitted curve at half-maximal effect; tags tell the direction and shape of the fitted curve.

SMILES	activity change, negative = growth inhibition	Potency
COc1ccc(CNC(=O)Cn2nc([N+](=O)[O-])c(Br)c2C)cc1OC	inactive: -18.2%	–
COc1ccc(N2CC(C(=O)Nc3ccc(S(=O)(=O)N4CCCCC4)cc3)CC2=O)cc1 (stereo unspecified)	–	inconclusive: 25.9 µM [inhibitor, single point]
COC(=O)c1ccccc1NC(=O)NCc1ccc2c(c1)OCO2	inactive: -7.44%	–
Cc1cc(-c2ccc(C)c(S(=O)(=O)NCCCN3CCCCCC3)c2)on1	inactive: -28.4%	–
COc1ccc(F)c(CN2CCOc3ccc(CN4CCC(Oc5cccnc5)CC4)cc3C2)c1	–	inconclusive: 18.4 µM [inhibitor, single point]
O=S(=O)(c1ccc2[nH]c3c(c2c1)CCCC3)N1CCN(c2cccc(C(F)(F)F)c2)CC1	–	inconclusive: 29.1 µM [inhibitor, partial curve, poor fit]
COC(=O)c1ccccc1N(C)S(=O)(=O)c1cc2c3c(c1)CCC(=O)N3CCC2	–	inconclusive: 29.1 µM [inhibitor, single point]
CCn1c(=O)cc(SCC(=O)NCCc2cccc(C)c2)c2ccccc21	–	inconclusive: 23.1 µM [inhibitor, partial curve]
O=C1C2C3C=CC(C4CC34)C2C(=O)N1/N=C/c1ccc(-c2ccc([N+](=O)[O-])cc2)o1 (stereo unspecified)	–	inconclusive: 10.3 µM [inhibitor, single point]
COCC(=O)N1CCC2(CC1)CCN(c1cccc(-c3ccccc3)c1)CC2	–	inconclusive: 16.4 µM [inhibitor, single point]
COc1ccc(CCC(=O)c2ccc(OC)cc2)cc1	–	inconclusive: 23.1 µM [inhibitor, single point]
O=c1n(Cc2ccc(Cl)cc2)c2ccccc2c2nc(-c3ccccc3)nn12	–	inconclusive: 1.3 µM [inhibitor, full curve, poor fit]
CCc1ccc(NC(=O)Cc2csc(COc3cccc(C)c3)n2)cc1	–	inconclusive: 23.1 µM [inhibitor, single point]
O=C1C(Cl)=C(N2CCOCC2)C(=O)N1c1ccc(Br)cc1	–	inconclusive: 5.8 µM [inhibitor, single point]
C=CCC1(CC=C)CCCN1Cc1nc(COc2ccccc2)no1	–	inconclusive: 29.1 µM [inhibitor, single point]
Cc1nc2ccc(S(=O)(=O)NC(C(=O)N3CCN(c4ccc(Cl)cc4)CC3)C(C)C)cc2s1 (stereo unspecified)	–	inconclusive: 29.1 µM [inhibitor, single point]
O=C(C1CCN(S(=O)(=O)c2cccnc2)CC1)N1CCCCC1	inactive: -7.68%	–
COc1cc(C2N=C(N)Nc3nc4ccccc4n32)ccc1OCC(=O)O (stereo unspecified)	inactive: 3.26%	–
Cc1cc(C)cc(Nc2nc3ccccc3n3cnnc23)c1	–	inconclusive: 23.1 µM [inhibitor, single point]
CCC1COCCS(=O)(=O)N1Cc1ccccc1 (stereo unspecified)	–	inconclusive: 20 µM [inhibitor, single point]
COc1ccccc1-c1nc(N)n[nH]1	inactive: 7.65%	–
Cc1nc(Cl)c(C(=O)NCCC(C)C)c(C)c1[N+](=O)[O-]	inconclusive: -1.77% [inhibitor]	–
S=c1nc(Cc2ccc(Cl)cc2)[nH]c2ccccc12	–	inconclusive: 11.6 µM [inhibitor, partial curve, poor fit]
CCCCn1c(N)c(N(CCOC)C(=O)CCNC(=O)c2ccc(Cl)cc2)c(=O)[nH]c1=O	inactive: -10.4%	–

SMILES	activity change, negative = growth inhibition	Potency
O=C(CN1CCOCC1)N/N=C/C(Br)=C\c1ccccc1	–	active: 10.3 µM
CCCOc1ccc(C(=O)CCC(=O)OCC(=O)N2CCN(S(=O)(=O)c3ccc(C)cc3C)CC2)cc1	–	inconclusive: 6.51 µM [inhibitor, single point]
C=C1CC[C@@]23CC[C@]4(C)[C@@](OC2=O)([C@@H]3C1)[C@H]1O[C@H]1C1[C@@]2(C)CC[C@H](O)C(C)(C)C2CC[C@]14C (stereo partly specified)	–	inconclusive: 18.4 µM [inhibitor, partial curve]
COc1cccc(-c2onc3ccc(C(C)=O)cc23)c1	inactive: -8.11%	–
CCOC(=O)C1(C(=O)OCC)C(C)CC(=O)N1c1ccccc1OC (stereo unspecified)	inactive: 8.26%	–
CC(C)(C)NC(=O)C1c2ccccc2OCC(=O)N1CC(F)(F)F (stereo unspecified)	inactive: -12.4%	–
Cc1cc(C)cc(-n2ccnc2SCC(=O)Nc2ccc(C)cc2C)c1	–	active: 20.6 µM
COc1ccc(C(=O)NCC(c2ccc(N(C)C)cc2)N2CCCC2)cc1 (stereo unspecified)	–	inconclusive: 9.2 µM [inhibitor, partial curve]
Cc1cc(C)n(CCCNC(=O)CCNS(=O)(=O)c2ccccc2C(F)(F)F)n1	inactive: 9.58%	–
Cc1cc(NC(=O)c2ccc(-c3ccccc3F)o2)no1	–	active: 18.4 µM
CCOc1ccc2oc(=O)cc(CN3CCN(Cc4ccc(F)cc4)CC3)c2c1	–	active: 23.1 µM
O=C(COc1coc(CN2CCN(c3ccccc3F)CC2)cc1=O)NC1CCCCC1	–	inconclusive: 20.6 µM [inhibitor, single point]
COC(=O)c1cc(Cl)c(NC(=O)Cc2ccccc2)cc1OC	inconclusive: -31.5% [inhibitor]	–
CCOc1ccc(N(CC(=O)Nc2ccc(C)cc2C)S(C)(=O)=O)cc1	–	inconclusive: 29.1 µM [inhibitor, single point]
O=C(COc1ccc(F)cc1F)N1CCCCCCC1	–	inconclusive: 29.1 µM [inhibitor, single point]
Cc1cc(NC(=O)CCC(=O)N(C2CC2)C(C(=O)NC(C)(C)C)c2ccccc2Cl)no1 (stereo unspecified)	inactive: -10.9%	–
CC(C)(C)n1ncc(Oc2ccccc2[N+](=O)[O-])c(Cl)c1=O	–	active: 23.1 µM
COc1ccc(C(=O)NC(=S)Nc2ccc3oc(=O)ccc3c2)cc1[N+](=O)[O-]	–	inconclusive: 18.4 µM [inhibitor, single point]
COc1ccc(CCNC(=O)c2ccccc2-c2ccccc2C(=O)O)cc1OC	inactive: -10.3%	–
CCCC(=O)c1c[nH]c(C(=O)NCc2ccco2)c1	inactive: -27.9%	–
CCC(=O)N1CCc2cc(Br)cc(S(=O)(=O)CCC(=O)N3CCN(c4ccc(OC)cc4)CC3)c21	inactive: -0.477%	–
O=C(NCC1CCCO1)C1CCN(C2CCN(CCCC3CCCC3)CC2)CC1 (stereo unspecified)	–	active: 23.1 µM
CCCCCC(=O)Nc1cc(S(=O)(=O)O)cc2cc(S(=O)(=O)O)cc(O)c12	–	inconclusive: 29.1 µM [inhibitor, single point]
O=C(O)C1CC[C@@](C(=O)O)(c2ccccc2)c2ccccc21 (stereo partly specified)	inactive: 11% [at 9.04 µM]	–

SMILES	activity change, negative = growth inhibition	Potency
CCOC(=O)C1CCN(CC(=O)N(CC(C)C)c2c(N)n(CC(C)C)c(=O)[nH]c2=O)CC1	inactive: 16.5%	–
Cc1ccc(C(=O)Nc2ccccc2N2CCCCC2)cc1S(=O)(=O)N1CCOCC1	–	inconclusive: 29.1 µM [inhibitor, single point]
COc1cccc(C(=O)COC(=O)COc2c(C)cc(C)cc2C)c1	inactive: 2.2%	–
COc1ccc(OC)c2sc(N3CCN(C(=O)c4ccc([N+](=O)[O-])s4)CC3)nc12	–	inconclusive: 29.1 µM [inhibitor, single point]
CCOc1ccc(NC(=O)CSc2nc(=O)n(CCCN3CCOCC3)c3c2CCC3)cc1	inactive: 4.67%	–
Cc1c(C=O)c2ccccc2n1CCOc1ccccc1	–	inconclusive: 23.1 µM [inhibitor, single point]
CCOC(=O)N1CCC2(CC1)C(C#N)=C(N)Oc1c2sc2nc(C)cc(C)c12	–	active: 16.4 µM
Cc1ccc(N2CCN(C(C(=O)Nc3c(C)cccc3C)c3cccc(F)c3)CC2)cc1 (stereo unspecified)	–	inconclusive: 20.6 µM [inhibitor, single point]
Cc1cccc(NC(=O)Nc2c(C)[nH]c(=O)[nH]c2=O)c1C	inactive: 15.8%	–
COc1cc(NC(=O)CNC(=O)Cn2ccc3ccccc3c2=O)cc(OC)c1OC	–	inactive and inconclusive: 11.6 µM [inhibitor, partial curve, poor fit]
CC1(C)CC(=O)c2c(noc2-c2ccccc2)C1	–	inconclusive: 10.3 µM [inhibitor, partial curve, poor fit]
CC(C)c1ccc(Nc2ncnc3c2nc2n3CCCC2)cc1	–	inconclusive: 20.6 µM [inhibitor, single point]
Cc1ccc2nc(Nc3ncc4c(n3)CC(C)(C)CC4=O)nc(C)c2c1	–	inconclusive: 23.1 µM [inhibitor, single point]
CCC(=O)Nc1ccccc1-c1nc2ccccc2n(C(C)C(=O)Nc2cccc(Cl)c2C)c1=O (stereo unspecified)	–	inconclusive: 20.6 µM [inhibitor, single point]
CCc1ccc(NC(=O)Cn2nnc(-c3ccccc3N)n2)cc1	inactive: -23.3%	–
CC1CCCC(C)N1C(=O)COc1cccc(Oc2ccccc2)c1 (stereo unspecified)	–	inconclusive: 25.9 µM [inhibitor, single point]
O=C(c1cccc(F)c1)N1CCC2(CCCN(c3ncccn3)C2)CC1	–	inconclusive: 29.1 µM [inhibitor, single point]
Cc1ccccc1NC(=O)Cn1nnc(S(=O)(=O)c2ccc(C(C)(C)C)cc2)c1N	–	inconclusive: 18.4 µM [inhibitor, partial curve]
O=C(COC(=O)c1ccc[nH]c1=O)NCCC1=CCCCC1	inactive: -0.319%	–
O=C(On1c(-c2ccccc2)nc2ccccc2c1=O)c1ccco1	–	active: 23.1 µM
CNC(=S)N1CCN(c2ccc([N+](=O)[O-])cc2)CC1	–	inconclusive: 8.2 µM [inhibitor, full curve, poor fit]
Cc1cc2c(C)cc(=O)[nH]c2cc1NC(=O)CCl	–	active: 2.31 µM
COc1ccccc1-c1cnc(C(O)c2ccc(SC)cc2)[nH]1 (stereo unspecified)	–	inconclusive: 23.1 µM [inhibitor, partial curve, poor fit]

From PubChem BioAssay AID686978 (National Center for Advancing Translational Sciences (NCATS), 2013)
